44 compounds from ChEMBL document CHEMBL4888484, “Replenishing the malaria drug discovery pipeline: Screening and hit evaluation of the MMV Hit Generation Library 1 (HGL1) against asexual blood stage Plasmodium falciparum ,using a nano luciferase reporter read-out” (2022) can be followed below.

In all, about 150,000 compounds went through this assay and about 540 (0.36%) showed an effect of 50% or more. Some of the results follow.

The subject of this test is Plasmodium falciparum. As to the kind of experiment: Primary screen in NF54 nanoGlo assay, in single point, at 2uM, 72h; a lower Z score goes with more inhibition. The note with it: timepoint 72 hour. Format: functional, Erythrocyte.
On to `CCC(CC)NC(=O)Cn1c(-c2ccccc2)nn(-c2ccc(OC)cc2)c1=O`, for which the % Inhibition (in general, the change of the read-out against control, counted positive when it falls) is -13% and the Z score came to 1.24.
The matching figures for `COc1ccccc1OCC(=O)N1CCc2oncc2C1`: -14% and 2.19.
For `O=C(c1cncnc1)N1CCOCC12CC2`, in that order: -14% and 2.1.
The matching figures for `CC(=O)N1CCc2cc(CNC(=O)c3ccc(C)cc3)ccc21`: 0% and 0.05.
Take `Cc1cc(C(=O)N[C@H]2CCOC[C@@H]2OCc2ccccn2)ccc1Cl`: the “% Inhibition” value is -12% and the Z score was determined as 1.68.
The matching figures for `N#Cc1cnn(-c2ccccc2)c1NC[C@H]1COC2(CCOCC2)O1`: -6% and 0.86.
For `COC(=O)c1cc(-c2cccc3ccccc23)on1`, in that order: -13% and 2.38.
For `Cc1ncc(CNCCCc2ccc(C(C)C)cc2)cn1`, in that order: -5% and 0.67.
For the compound `Cn1ncnc1NC(=O)N1CC[C@H](c2cccc(C(F)(F)F)c2)C1`, the “% Inhibition” value is given as -6% and the Z score is 0.64.
The matching figures for `Cn1ncc(C2CCC2)c1C(=O)N1CCC[C@H](c2nc3ccc(F)cc3o2)C1`: -17% and 2.24.
For `C[C@@H]1CN(S(=O)(=O)c2ccoc2)C[C@H](C)N1CC(F)(F)F`, in that order: -8% and 1.23.
For `O=C(NCCc1ccccc1)c1cc2n(n1)CCN(Cc1cccc(F)c1)C2=O`, in that order: -10% and 1.44.
As to `CCc1cnccc1C(=O)N(C)C1(C(N)=O)CCCC1`, the “% Inhibition” value is -3% and the Z score is listed as 0.43.
For `CCCCn1nc(-c2ccco2)nc1[C@H](CC)N1CCOCC1`, in that order: 2% and -0.3.
In the case of `CCCn1nnnc1CN1C(=O)N[C@](CCC)(c2ccccc2)C1=O`, the “% Inhibition” value is listed as -5% and the Z score was 0.83.
The matching figures for `Cc1c[nH]c(CN(C)[C@@H](C)c2ccccn2)c(C)c1=O`: 7% and -0.95.
For `CC(NC1CC1)C(=O)N1CC(c2cccc(F)c2)OCC1(C)C` (stereo not drawn), in that order: -7% and 1.27.
For `COCCn1cc(N2C[C@@H](C(=O)Nc3cc(C)on3)CC2=O)cn1`, in that order: -8% and 1.46.
With `COc1cc(NC(=O)c2c(Br)c3ccccc3n2C)c(C(N)=O)cc1OC`, the “% Inhibition” value was 3% and the Z score is given as -0.27.
`Cc1cnc(C2CCC2)n1[C@H]1CCN(C(=O)c2ccnn2C)C1`: the “% Inhibition” value is reported as -15% and the Z score turned out to be 1.9.
The matching figures for `COCCn1nnc2c1CCN(S(=O)(=O)CC1(C)CCCCC1)C2`: 30% and -3.35.
As to `CC(NC(=O)C(Cc1ccccc1)NS(=O)(=O)c1ccccc1F)c1ccc(F)cc1` (stereo not drawn), the “% Inhibition” value turned out to be 13% and the Z score is listed as -1.6.
The matching figures for `COc1ccc(NC(=O)Cn2c(C)ccc2C)cc1-c1nnn[nH]1`: 4% and -0.5.
Regarding `C[C@H](Oc1ccccc1)C(=O)N1CCC(n2cc(C(=O)NC3CCCC3)nn2)CC1`, the “% Inhibition” value was determined as 2% and the Z score is given as -0.18.
The matching figures for `O=C(Nc1cnc(C(F)(F)F)nc1)[C@H]1CCCO1`: -2% and 0.37.
As to `CCOc1ccc(OCc2nnc(C3CCC3)n2C)cc1`, the “% Inhibition” value is given as 0% and the Z score turned out to be 0.01.
Take `COc1ccc(-c2c(C)noc2NC(C)=O)cc1S(=O)(=O)Nc1ccccc1Cl`: the “% Inhibition” value is given as -7% and the Z score stood at 1.02.
The matching figures for `CC(=O)c1ccc(S(=O)(=O)NC2(C(F)(F)F)CCOCC2)cc1`: -12% and 1.89.
The matching figures for `CN1CC(NC(=O)c2cnnn2C)C(c2ccccc2)C1` (stereo not drawn): -6% and 0.86.
The matching figures for `COc1cc(OC)cc(C(=O)N2Cc3cncnc3C2)c1`: -16% and 2.65.
With `NC1CCC2CN(c3noc4ccc(Br)cc34)CC12` (stereo not drawn), the “% Inhibition” value was found to be 12% and the Z score was -2.35.
As to `CCOC1CC(O)C12CCN(C(=O)c1cc(C(C)C)n(C)n1)CC2` (stereo not drawn), the “% Inhibition” value is on record as -16% and the Z score worked out at 2.28.
With `CC1=C(c2ccccc2)S(=O)(=O)N=C1N1CC(C)CC(C)C1` (stereo not drawn), the “% Inhibition” value was -6% and the Z score stood at 0.94.
The matching figures for `CC(=O)c1ccc(-c2ccc3nc(-c4ccc(C)cc4)c(CCC(=O)NCc4ccco4)n3c2)cc1`: -1% and 0.14.
For `Cc1cnc(-c2noc(C=C3CC[C@H](C)C3)n2)s1`, in that order: -7% and 0.68.
The matching figures for `O=C(NCc1ccc(CNC(=O)c2ccccc2)cc1)c1ccccc1`: 1% and -0.12.
For `Cc1ncsc1CN[C@@H](C)C1(Br)CC1`, the “% Inhibition” value worked out at 2% and the Z score is listed as -0.28.
In the case of `Cc1cnc(-c2ccccc2)n1C1CCN(C(=O)CCC2CCCC2)CC1`, the “% Inhibition” value is given as -14% and the Z score came out at 1.78.
For `C[C@H](NC(=O)Cc1ccccc1)C(C)(C)C`, in that order: -4% and 0.59.
Turning to `Cc1c(NC(=O)N[C@H]2[C@@H]3COC[C@@H]32)cnn1CC(C)C`, the “% Inhibition” value is -12% and the Z score was determined as 1.24.
The matching figures for `Cn1cncc1C(=O)NCC1CCN(c2cnsn2)CC1`: -20% and 1.97.
The matching figures for `Clc1ccc([C@H]2CN(Cc3ccccn3)CCO2)cc1`: 1% and -0.15.
The matching figures for `CCCC[C@H](C)C(=O)Nc1cc(-c2cnn(C)c2)nn1C`: -14% and 1.74.
Turning to `Cc1nn(C)c(C)c1CC(=O)NCC1(NC(=O)OC(C)(C)C)CCCCCC1`, the “% Inhibition” value is -3% and the Z score came out at 0.29.
